# Laboratory results as given in the GPR68 mutational scans of Howard et al. (2025).
# Scores whose standard error is large were omitted. Two further conditions of the source, in which the scores hardly spread, are not listed. Read del as a deletion of the residues named and ins as an insertion between two positions. For part of these data: The data file names ogerin without a concentration.
# B1: GPR68, Q15743 (parent)
# chain: MGNITADNSSMSCTIDHTIHQTLAPVVYVTVLVVGFPANCLSLYFGYLQIKARNELGVYLCNLTVADLFYICSLPFWLQYVLQHDNWSHGDLSCQVCGILLYENIYISVGFLCCISVDRYLAVAHPFRFHQFRTLKAAVGVSVVIWAKELLTSIYFLMHEEVIEDENQHRVCFEHYPIQAWQRAINYYRFLVGFLFPICLLLASYQGILRAVRRSHGTQKSRKDQIQRLVLSTVVIFLACFLPYHVLLLVRSVWEASCDFAKGVFNAYHFSLLLTSFNCVADPVLYCFVSETTHRDLARLRGACLAFLTCSRTGRAREAYPLGAPEASGKSGAQGEEPELLTKLHPAFQTPNSPGSGGFPTGRLA
# Experiments:
# [1] = variants of: B1; experiment: cAMP reporter score (Enrich2 score, wild type = 0); higher = more signal; HEK293T, FACS bins
# [2] = variants of: B1; experiment: surface expression score (Enrich2 score, wild type = 0); higher = more signal; HEK293T, FACS bins
Variant,cAMP reporter score ([1]; pH 5.5),cAMP reporter score ([1]; pH 6),"cAMP reporter score ([1]; pH 6, modulator: ogerin)","cAMP reporter score ([1]; pH 6.5, modulator: ogerin)",surface expression score [2]
V246_L247insGS,-1.02,-1.7,-2,-1.26,-2.12
V246_L247insGSG,-1.56,-1.61,-1.66,-0.949,-2.45
V246_L248del,-1.57,-1.16,-1.29,-1.15,-2.6
V246del,-1.27,-1.23,-2.42,-1.64,-2.36
L247_L248insG,-0.734,-1.05,-1.71,-0.941,-2.06
MGNITADNSSMSCTIDHTIHQTLAPVVYVTVLVVGFPANCLSLYFGYLQIKARNELGVYLCNLTVADLFYICSLPFWLQYVLQHDNWSHGDLSCQVCGILLYENIYISVGFLCCISVDRYLAVAHPFRFHQFRTLKAAVGVSVVIWAKELLTSIYFLMHEEVIEDENQHRVCFEHYPIQAWQRAINYYRFLVGFLFPICLLLASYQGILRAVRRSHGTQKSRKDQIQRLVLSTVVIFLACFLPYHVLALVRSVWEASCDFAKGVFNAYHFSLLLTSFNCVADPVLYCFVSETTHRDLARLRGACLAFLTCSRTGRAREAYPLGAPEASGKSGAQGEEPELLTKLHPAFQTPNSPGSGGFPTGRLA [L248A],-0.45,-0.033,-0.725,-0.751,-0.359
MGNITADNSSMSCTIDHTIHQTLAPVVYVTVLVVGFPANCLSLYFGYLQIKARNELGVYLCNLTVADLFYICSLPFWLQYVLQHDNWSHGDLSCQVCGILLYENIYISVGFLCCISVDRYLAVAHPFRFHQFRTLKAAVGVSVVIWAKELLTSIYFLMHEEVIEDENQHRVCFEHYPIQAWQRAINYYRFLVGFLFPICLLLASYQGILRAVRRSHGTQKSRKDQIQRLVLSTVVIFLACFLPYHVLCLVRSVWEASCDFAKGVFNAYHFSLLLTSFNCVADPVLYCFVSETTHRDLARLRGACLAFLTCSRTGRAREAYPLGAPEASGKSGAQGEEPELLTKLHPAFQTPNSPGSGGFPTGRLA [L248C],0.42,-0.268,0.453,-0.238,0.46
MGNITADNSSMSCTIDHTIHQTLAPVVYVTVLVVGFPANCLSLYFGYLQIKARNELGVYLCNLTVADLFYICSLPFWLQYVLQHDNWSHGDLSCQVCGILLYENIYISVGFLCCISVDRYLAVAHPFRFHQFRTLKAAVGVSVVIWAKELLTSIYFLMHEEVIEDENQHRVCFEHYPIQAWQRAINYYRFLVGFLFPICLLLASYQGILRAVRRSHGTQKSRKDQIQRLVLSTVVIFLACFLPYHVLDLVRSVWEASCDFAKGVFNAYHFSLLLTSFNCVADPVLYCFVSETTHRDLARLRGACLAFLTCSRTGRAREAYPLGAPEASGKSGAQGEEPELLTKLHPAFQTPNSPGSGGFPTGRLA [L248D],-1.07,-1.22,-0.886,-0.883,-2.46
MGNITADNSSMSCTIDHTIHQTLAPVVYVTVLVVGFPANCLSLYFGYLQIKARNELGVYLCNLTVADLFYICSLPFWLQYVLQHDNWSHGDLSCQVCGILLYENIYISVGFLCCISVDRYLAVAHPFRFHQFRTLKAAVGVSVVIWAKELLTSIYFLMHEEVIEDENQHRVCFEHYPIQAWQRAINYYRFLVGFLFPICLLLASYQGILRAVRRSHGTQKSRKDQIQRLVLSTVVIFLACFLPYHVLELVRSVWEASCDFAKGVFNAYHFSLLLTSFNCVADPVLYCFVSETTHRDLARLRGACLAFLTCSRTGRAREAYPLGAPEASGKSGAQGEEPELLTKLHPAFQTPNSPGSGGFPTGRLA [L248E],-2.17,-1.44,-1.01,-0.492,-0.747
